In patent publication US20250368649A1, “TETRAHYDROPYRIDOPYRIMIDINE PAN-KRAS INHIBITORS” (Mirati Therapeutics, Inc., priority 2022, published 2025):

How the values were obtained:
ASPC1 cells = experiment: Inhibition of KRas-mediated phosphorylation of ERK (Cisbio HTRF pERK), ASPC1 cells; assay type: cell-based; conditions: Homo sapiens, AsPC-1 cells; for IC50: ASPC1, 3 h, 3 hr compound incubation, Cisbio pERK HTRF; for inhibition at 0.1 µM: ASPC1, single point at 100 nM, 3 hrs compound incubation
H358 cells = experiment: Inhibition of KRas-mediated phosphorylation of ERK (Cisbio HTRF pERK), H358 cells; assay type: cell-based; conditions: Homo sapiens; for IC50: NCI-H358, 3 h, 3 hr compound incubation, Cisbio pERK HTRF; for inhibition at 0.1 µM: NCI-H358, single point at 100 nM, 3 hrs compound incubation
PSN1 cells = experiment: Inhibition of KRas-mediated phosphorylation of ERK (Cisbio HTRF pERK), PSN1 cells; assay type: cell-based; conditions: Homo sapiens, PSN1, 3 h, 3 hour compound incubation, Cisbio pERK HTRF
Procedure: (§1) Inhibition of KRas Phosphorylation of ERK (HTRF) by Exemplary Compounds of Formula (I) Cisbio HTRF Advanced pERK Assay Catalog #64AERPEH • Cells: MKN1, PSN1 • Procedure: • Day 1: Seed 6,000 cells/well -25 µl/well in 384-well white solid bottom plate; RPM1_10% FBS.

H460 cells = experiment: Inhibition of KRas-mediated phosphorylation of ERK (Cisbio HTRF pERK), H460 cells; assay type: cell-based; conditions: Homo sapiens; for IC50: NCI-H460, 3 h, 3 hr compound incubation, Cisbio pERK HTRF; for inhibition at 0.1 µM: NCI-H460, single point at 100 nM, 3 hrs compound incubation
KRas G12S = KRas G12S (Homo sapiens, UniProt P01116, G12S); assay type: binding; conditions: for inhibition at 0.01 µM: single point, 10 nM compound, read-out: Binding to KRas (% inhibition at 10 nM) G12S
KRas G13D = KRas G13D (Homo sapiens, UniProt P01116, G13D); assay type: binding; conditions: for inhibition at 0.01 µM: single point, 10 nM compound, read-out: Binding to KRas (% inhibition at 10 nM) G13D
KRas G12A = KRas G12A (Homo sapiens, UniProt P01116, G12A); assay type: binding; conditions: for inhibition at 0.01 µM: single point, 10 nM compound, read-out: Binding to KRas (% inhibition at 10 nM) G12A
KRas Q61H = KRas Q61H (Homo sapiens, UniProt P01116, Q61H); experiment: KRas binding assay (TR-FRET displacement), KRas Q61H; conditions: for inhibition at 0.01 µM: single point, 10 nM compound
KRas WT = KRas WT (Homo sapiens, UniProt P01116); experiment: KRas binding assay (TR-FRET displacement), KRas WT; conditions: for inhibition at 0.01 µM: single point, 10 nM compound
KRas G12C = KRas G12C (Homo sapiens, UniProt P01116, G12C); assay type: binding; conditions: for inhibition at 0.01 µM: single point, 10 nM compound, read-out: Binding to KRas (% inhibition at 10 nM) G12C
MKN1 cells = experiment: Inhibition of KRas-mediated phosphorylation of ERK (Cisbio HTRF pERK), MKN1 cells; assay type: cell-based; conditions: Homo sapiens, MKN-1, 3 hour compound incubation
Procedure: as §1

H727 cells = experiment: Inhibition of KRas-mediated phosphorylation of ERK (Cisbio HTRF pERK), H727 cells; assay type: cell-based; conditions: Homo sapiens; for IC50: NCI-H727, 3 h, 3 hr compound incubation, Cisbio pERK HTRF; for inhibition at 0.1 µM: NCI-H727, single point at 100 nM, 3 hrs compound incubation
HCT116 cells = experiment: Inhibition of KRas-mediated phosphorylation of ERK (Cisbio HTRF pERK), HCT116 cells; assay type: cell-based; conditions: Homo sapiens; for IC50: HCT-116, 3 h, 3 hr compound incubation, Cisbio pERK HTRF; for inhibition at 0.1 µM: HCT-116, single point at 100 nM, 3 hrs compound incubation
A549 cells = experiment: Inhibition of KRas-mediated phosphorylation of ERK (Cisbio HTRF pERK), A549 cells; assay type: cell-based; conditions: Homo sapiens; for IC50: A549, 3 h, 3 hr compound incubation, Cisbio pERK HTRF; for inhibition at 0.1 µM: single point at 100 nM, 3 hrs compound incubation

Structure (SMILES) | IC50 (ASPC1 cells) [nM] | IC50 (H358 cells) [nM] | IC50 (PSN1 cells) [nM] | IC50 (H460 cells) [nM] | inhibition at 0.01 µM (KRas G12S) [%] | inhibition at 0.01 µM (KRas G13D) [%] | inhibition at 0.01 µM (KRas G12A) [%] | inhibition at 0.01 µM (KRas Q61H) [%] | inhibition at 0.01 µM (KRas WT) [%] | inhibition at 0.01 µM (KRas G12C) [%] | IC50 (MKN1 cells) [nM] | IC50 (H727 cells) [nM] | IC50 (HCT116 cells) [nM] | IC50 (A549 cells) [nM] | inhibition at 0.1 µM (H460 cells) [%] | inhibition at 0.1 µM (HCT116 cells) [%] | inhibition at 0.1 µM (ASPC1 cells) [%] | inhibition at 0.1 µM (H358 cells) [%] | inhibition at 0.1 µM (H727 cells) [%] | inhibition at 0.1 µM (A549 cells) [%] | further results
CCc1c(F)ccc2cc(O)cc(N3CCc4c(nc(OC[C@@]56CCCN5C[C@H](F)C6)nc4N4CCCn5nc(C(=O)NC)c(F)c5C4)C3)c12 [Example 362, 5-(7-(8-ethyl-7-fluoro-3-hydroxynaphthalen-1-yl)-2-(((2R,7aS)-2-fluorohexahydro-1H-pyrrolizin-7a-yl)methoxy)-5,6,7,8-tetrahydropyrido[3,4-d]pyrimidin-4-yl)-3-fluoro-N-methyl-5,6,7,8-tetrahydro-4H-pyrazolo[1,5-a][1,4]diazepine-2-carboxamide] | 5 | 7 | 2640 | 56 | 99 | 95 | 97 | 95 | 96 | 99 | 11.2 | 11 | 172 | 20 | 60 | 27 | – | – | – | – | –
CCc1c(F)ccc2cc(O)cc(N3CCc4c(nc(OC[C@@]56CCCN5C[C@H](F)C6)nc4N4CCCn5nc(C(=O)N6CC7CC(C7)C6)cc5C4)C3)c12 [Example 330, 3-azabicyclo[3.1]heptan-3-yl(5-(7-(8-ethyl-7-fluoro-3-hydroxynaphthalen-1-yl)-2-(((2R,7aS)-2-fluorohexahydro-1H-pyrrolizin-7a-yl)methoxy)-5,6,7,8-tetrahydropyrido[3,4-d]pyrimidin-4-yl)-5,6,7,8-tetrahydro-4H-pyrazolo[1,5-a][1,4]diazepin-2-yl)methanone] | 7 | 8 | 6080 | 30 | 96 | 91 | 87 | 91 | 91 | 97 | 14.5 | 16 | 117 | 8 | 60 | 27 | 94 | 98 | 77 | 80 | –
O=S1(=O)CCC2(CCCN(c3nc(OC[C@@]45CCCN4C[C@H](F)C5)nc4c3CCN(c3cc(O)cc5ccc(F)c(Cl)c35)C4)C2)C1 (stereo partly drawn) [Example 465, 7-(7-(8-chloro-7-fluoro-3-hydroxynaphthalen-1-yl)-2-(((2R,7aS)-2-fluorohexahydro-1H-pyrrolizin-7a-yl)methoxy)-5,6,7,8-tetrahydropyrido[3,4-d]pyrimidin-4-yl)-2-thia-7-azaspiro[4.5]decane 2,2-dioxide] | 68 | – | 903 | – | 93 | 96 | 77 | 96 | 92 | 97 | 16 | 154 | – | – | 54 | 25 | – | 66 | – | 46 | –
Cc1cc2[nH]ncc2c(N2CCc3c(nc(OCC4(CN(C)C)CC4)nc3N3CCCC4(CNS(=O)(=O)N4)C3)C2)c1C (stereo not shown) [Example 511, 7-(7-(5,6-dimethyl-1H-indazol-4-yl)-2-((1-((dimethylamino)methyl)cyclopropyl)methoxy)-5,6,7,8-tetrahydropyrido[3,4-d]pyrimidin-4-yl)-2-thia-1,3,7-triazaspiro[4.5]decane 2,2-dioxide] | 2550 | – | > 10000 | – | – | – | – | – | – | – | 169 | > 10000 | – | – | -7 | 4 | 18 | -22 | 9 | 1 | IC50 (KRas G12S; TR-FRET displacement, read-out: Binding to KRas (IC50 nM) G12S): 30 nM; IC50 (KRas G13D; TR-FRET displacement, read-out: Binding to KRas (IC50 nM) G13D): 28 nM; IC50 (KRas G12A; TR-FRET displacement, read-out: Binding to KRas (IC50 nM) G12A): 34 nM; IC50 (KRas Q61H; TR-FRET displacement): 32 nM; IC50 (KRas WT; TR-FRET displacement): 30 nM; IC50 (KRas G12C; TR-FRET displacement, read-out: Binding to KRas (IC50 nM) G12C): 20 nM

Continued, in another order:

IC50 (ASPC1 cells) [nM] | IC50 (H358 cells) [nM] | IC50 (PSN1 cells) [nM] | IC50 (H460 cells) [nM] | inhibition at 0.01 µM (KRas G12S) [%] | inhibition at 0.01 µM (KRas G13D) [%] | inhibition at 0.01 µM (KRas G12A) [%] | inhibition at 0.01 µM (KRas Q61H) [%] | inhibition at 0.01 µM (KRas WT) [%] | inhibition at 0.01 µM (KRas G12C) [%] | IC50 (MKN1 cells) [nM] | IC50 (H727 cells) [nM] | IC50 (HCT116 cells) [nM] | IC50 (A549 cells) [nM] | Structure (SMILES) | inhibition at 0.1 µM (H460 cells) [%] | inhibition at 0.1 µM (HCT116 cells) [%] | inhibition at 0.1 µM (ASPC1 cells) [%] | inhibition at 0.1 µM (H358 cells) [%] | inhibition at 0.1 µM (H727 cells) [%] | inhibition at 0.1 µM (A549 cells) [%] | further results
5 | 6 | 6240 | 43 | 97 | 93 | 94 | 95 | 93 | 98 | 10.4 | 9 | 221 | 28 | CCc1c(F)ccc2cc(O)cc(N3CCc4c(nc(OC[C@@]56CCCN5C[C@H](F)C6)nc4N4CCCn5nc(C(=O)N6CCC7CC7C6)cc5C4)C3)c12 (stereo partly drawn) [Example 332, 3-azabicyclo[4.1.0]heptan-3-yl(5-(7-(8-ethyl-7-fluoro-3-hydroxynaphthalen-1-yl)-2-(((2R,7aS)-2-fluorohexahydro-1H-pyrrolizin-7a-yl)methoxy)-5,6,7,8-tetrahydropyrido[3,4-d]pyrimidin-4-yl)-5,6,7,8-tetrahydro-4H-pyrazolo[1,5-a][1,4]diazepin-2-yl)methanone] | 80 | 38 | – | 100 | – | 87 | –
2 | 2 | 3900 | 22 | 99 | 96 | 97 | 98 | 97 | 99 | 2.9 | 3 | 69 | 14 | CCc1c(F)ccc2cc(O)cc(N3CCc4c(nc(OC[C@@]56CCCN5C[C@H](F)C6)nc4N4CCCn5nc(C(=O)N6CCC7CC6CO7)cc5C4)C3)c12 (stereo partly drawn) [Example 337, 6-oxa-2-azabicyclo[3.2.1]octan-2-yl(5-(7-(8-ethyl-7-fluoro-3-hydroxynaphthalen-1-yl)-2-(((2R,7aS)-2-fluorohexahydro-1H-pyrrolizin-7a-yl)methoxy)-5,6,7,8-tetrahydropyrido[3,4-d]pyrimidin-4-yl)-5,6,7,8-tetrahydro-4H-pyrazolo[1,5-a][1,4]diazepin-2-yl)methanone] | 96 | 73 | 99 | 106 | 80 | 94 | –
2 | 2 | 3660 | 10 | 99 | 98 | 98 | 98 | 98 | 99 | 2.6 | 8 | 32 | 8 | CCc1c(F)ccc2cc(O)cc(N3CCc4c(nc(OC[C@@]56CCCN5C[C@H](F)C6)nc4N4CCCn5nc(C(=O)N6CC7CCC(C6)O7)cc5C4)C3)c12 [Example 333, 8-oxa-3-azabicyclo[3.2.1]octan-3-yl(5-(7-(8-ethyl-7-fluoro-3-hydroxynaphthalen-1-yl)-2-(((2R,7aS)-2-fluorohexahydro-1H-pyrrolizin-7a-yl)methoxy)-5,6,7,8-tetrahydropyrido[3,4-d]pyrimidin-4-yl)-5,6,7,8-tetrahydro-4H-pyrazolo[1,5-a][1,4]diazepin-2-yl)methanone] | 98 | 88 | 102 | 100 | 89 | 74 | –
